The list shows a part of the results. Many values rest on one well or one pass, so single values are uncertain.
Legend:
Assay in all cases: proliferation Z-score within cell line (SRB, relative to all inhibitors screened on that line); triple-negative breast cancer lines and a kinase inhibitor library; SRB is the sulforhodamine B protein stain; higher = less growth inhibition (more resistant)
Details in all cases: concentration: 1 µM; 4 days
[1] = test system: Bt20
[2] = test system: Bt549
[3] = test system: HCC1143
[4] = test system: HCC1806
[5] = test system: HCC1937
[6] = test system: HCC38
[7] = test system: HCC70
[8] = test system: Hs578T
[9] = test system: MDA-MB-231
[10] = test system: MDA-MB-435s
[11] = test system: MDA-MB-436
[12] = test system: MDA-MB-453
[13] = test system: MDA-MB-468
[14] = test system: SKBR7
[15] = test system: SUM1315MO2
[16] = test system: SUM149PT
[17] = test system: SUM159PT
[18] = test system: SUM185PE
[19] = test system: SUM229PE
[20] = test system: SUM52PE
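Further: Single-dose primary screen of a 378-member kinase inhibitor library in 96-well plates, with growth read as absorbance of protein-bound SRB dye after TCA fixation.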

Compound | proliferation Z-score within cell line [1] | proliferation Z-score within cell line [2] | proliferation Z-score within cell line [3] | proliferation Z-score within cell line [4] | proliferation Z-score within cell line [5] | proliferation Z-score within cell line [6] | proliferation Z-score within cell line [7] | proliferation Z-score within cell line [8] | proliferation Z-score within cell line [9] | proliferation Z-score within cell line [10] | proliferation Z-score within cell line [11] | proliferation Z-score within cell line [12] | proliferation Z-score within cell line [13] | proliferation Z-score within cell line [14] | proliferation Z-score within cell line [15] | proliferation Z-score within cell line [16] | proliferation Z-score within cell line [17] | proliferation Z-score within cell line [18] | proliferation Z-score within cell line [19] | proliferation Z-score within cell line [20]
Cc1[nH]c(/C=C2\C(=O)Nc3ccc(S(=O)(=O)N(C)c4cccc(Cl)c4)cc32)c(C)c1C(=O)N1CCN(C)CC1 | 0.147 | 0.118 | 0.973 | 0.628 | 0.936 | 0.432 | 0.855 | 0.531 | 0.259 | 1.06 | 0.65 | 0.638 | 0.638 | 0.0157 | 0.0199 | 0.745 | 0.648 | -0.252 | 0.14 | -0.155
Cc1cc(Nc2nc(N[C@@H](C)c3ncc(F)cn3)ncc2Cl)[nH]n1 | 0.762 | 0.0344 | 0.622 | 0.612 | 0.918 | 0.143 | 0.704 | -0.706 | 0.0093 | 0.0858 | 1.02 | -0.817 | -0.708 | -0.479 | -1.3 | 0.735 | 0.561 | -1.67 | 0.495 | -1.44
NC1(c2ccc(-c3nc4ccn5c(=O)[nH]nc5c4cc3-c3ccccc3)cc2)CCC1 | -0.72 | -0.605 | -0.0918 | 0.652 | -0.551 | 0.5 | -1.2 | -0.556 | 0.512 | 0.604 | -0.422 | -2 | -0.996 | 0.377 | 0.203 | 0.225 | -0.0627 | -1.79 | 0.87 | -1.23
Cc1nc(Nc2ncc(C(=O)Nc3c(C)cccc3Cl)s2)cc(N2CCN(CCO)CC2)n1 [Dasatinib] | -0.368 | -1.67 | -0.834 | -2.57 | -0.617 | -3.28 | 0.452 | -2.65 | -2.29 | 0.315 | 0.0152 | 0.552 | 0.473 | -1.44 | -1.76 | -2.14 | 0.103 | 1.17 | -1.85 | 0.327
C[C@@H]1CN(CC(=O)Nc2ccc3c(c2)Cc2cccc(-c4cc(=O)cc(N5CCOCC5)o4)c2S3)C[C@H](C)O1 | 0.98 | 0.793 | 0.703 | 0.68 | 0.641 | 0.577 | 0.535 | 0.616 | -0.116 | 0.567 | 0.565 | 0.868 | 0.751 | 1.13 | 1.24 | 0.887 | 0.461 | 0.927 | 0.615 | 0.923
COc1cc2c(Oc3ccc4[nH]c(C)cc4c3F)ncnc2cc1OCCCN1CCCC1 [Cediranib (AZD2171)] | 0.135 | -0.225 | 0.331 | -1.82 | 0.442 | 0.0492 | 0.557 | 0.0349 | 0.935 | 0.497 | 0.483 | -0.562 | 0.197 | -0.718 | -1.55 | -0.117 | 0.402 | -1.48 | -0.437 | -1.3
Cc1[nH]c2ccccc2c1C1=C(NCCc2ccc(F)cc2)C(=O)N(C)C1=O | 0.541 | 0.413 | 0.457 | 0.692 | 0.359 | 0.278 | 0.47 | 0.372 | 0.56 | 0.674 | 0.501 | 0.668 | 0.649 | 1.02 | 0.469 | 0.789 | 0.422 | 0.859 | 0.436 | 0.626
O=C1c2ccc(Nc3ccc(F)cc3F)cc2CCc2ccc(OC[C@H](O)CO)cc21 [Skepinone-L] | 0.547 | 0.538 | 0.652 | 0.732 | 0.754 | 0.55 | 0.544 | 0.566 | 0.547 | 0.781 | 0.264 | 0.773 | 0.537 | 0.462 | 0.208 | 0.527 | 0.341 | 0.374 | 0.655 | 0.441
NCC(=O)Nc1ccc(-n2nc(C(F)(F)F)cc2-c2ccc3c(ccc4ccccc43)c2)cc1 | 1.28 | 0.699 | 1.22 | 0.806 | 0.853 | 0.499 | 0.888 | 0.44 | -0.634 | 0.716 | 0.677 | 0.77 | -0.118 | 0.382 | 1.13 | 0.862 | 0.63 | 1.45 | 0.639 | 1.07
C=CC(=O)Nc1cc(Nc2nccc(-c3cn(C)c4ccccc34)n2)c(OC)cc1N(C)CCN(C)C | 0.0191 | 0.325 | -0.867 | -1.55 | -1.43 | 0.299 | 0.516 | 0.563 | 0.338 | 0.726 | 0.456 | -1.14 | -1.69 | 0.897 | -0.0104 | -0.209 | 0.39 | -0.215 | -0.883 | 0.333
CO[C@H]1C[C@@H]2CC[C@@H](C)[C@@](O)(O2)C(=O)C(=O)N2CCCC[C@H]2C(=O)O[C@H]([C@H](C)C[C@@H]2CC[C@@H](OP(C)(C)=O)[C@H](OC)C2)CC(=O)[C@H](C)/C=C(\C)[C@@H](O)[C@@H](OC)C(=O)[C@H](C)C[C@H](C)/C=C/C=C/C=C/1C [Ridaforolimus (Deforolimus, MK-8669)] | -1.46 | -2.35 | -0.367 | 0.0142 | -1.11 | -0.959 | -1.49 | -2.7 | -0.8 | -0.715 | -1.36 | -1.84 | -0.813 | -1.33 | -0.708 | -0.619 | -0.603 | -1.11 | -1.05 | -0.994
Cc1cc(Nc2ncc(Cl)c(Nc3ccccc3S(=O)(=O)C(C)C)n2)c(OC(C)C)cc1C1CCNCC1 | 0.592 | 0.613 | 0.334 | 0.186 | 0.471 | 0.435 | 0.442 | 0.418 | 0.201 | -0.254 | 0.597 | 0.837 | 0.792 | 0.6 | 1.23 | 0.518 | 0.508 | 1.36 | 0.334 | 1.2
